Measurements taken from the supplement of paper PMC4604168 (melanoma cell lines).
The other results are listed elsewhere or left out. Repeats are few or missing, and single values can be far off.

Tests used:
Assay in all cases: cell count relative to DMSO control; melanoma cells; higher = more viable cells
Details in all cases: library dose: low library concentration; 72 h
MZ2-MEL = test system: MZ2-MEL
MeWo = test system: MeWo
RPMI7951 = test system: RPMI7951
RVH-421 = test system: RVH-421
SkMel28 = test system: SkMel28
SkMel2 = test system: SkMel2
SkMel30 = test system: SkMel30
UACC62 = test system: UACC62
SkMel5 = test system: SkMel5
UACC257 = test system: UACC257
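Also: cell number obtained by counting DAPI-stained nuclei in high-throughput microscope images with image analysis software, screen run in 1,536-well plates.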

Row | Compound | cell count (MZ2-MEL) | cell count (MeWo) | cell count (RPMI7951) | cell count (RVH-421) | cell count (SkMel28) | cell count (SkMel2) | cell count (SkMel30) | cell count (UACC62) | cell count (SkMel5) | cell count (UACC257)
1 | CN1CCN(c2ccc3nc(-c4c(N)c5c(F)cccc5[nH]c4=O)[nH]c3c2)CC1 [Dovitinib] + O=C(O)[C@@H]1[O][Sb](=[O])([O][Sb]2(=[O])[O][C@H]([C@H](O)CO)[C@H](O)[C@H](C(=O)O)[O]2)[O][C@H]([C@H](O)CO)[C@@H]1O [stibogluconate] (first compound 0.1 µM, partner dose 2 µM) | 103% | 97.7% | 86.7% | 152% | 90.1% | 103% | 96.2% | 80.2% |  | 
2 | CN1CCN(c2ccc3nc(-c4c(N)c5c(F)cccc5[nH]c4=O)[nH]c3c2)CC1 [Dovitinib] + COc1ccc(Cl)c(Nc2nc3ccccc3nc2NS(=O)(=O)c2cccc(NC(=O)C(C)(C)N)c2)c1 [XL147] (first compound 0.1 µM, partner dose 0.8 µM) | 91.6% | 90.7% | 104% | 112% | 103% | 96.2% | 74.1% | 88.4% |  | 
3 | C=CCNC1=C2C[C@@H](C)C[C@H](OC)[C@H](O)[C@@H](C)/C=C(\C)[C@H](OC(N)=O)[C@@H](OC)/C=C\C=C(/C)C(=O)NC(=CC1=O)C2=O [Tanespimycin] + C[C@]1(c2nc3c(C(N)=O)cccc3[nH]2)CCCN1 [Veliparib] (first compound 0.002 µM, partner dose 1.4 µM) | 100% | 95% | 93.2% | 83.2% | 101% | 93.9% | 87.6% | 90.6% |  | 
4 | CS(=O)(=O)CCNCc1ccc(-c2ccc3ncnc(Nc4ccc(OCc5cccc(F)c5)c(Cl)c4)c3c2)o1 [lapatinib] + C[C@]1(c2nc3c(C(N)=O)cccc3[nH]2)CCCN1 [Veliparib] (first compound 0.8 µM, partner dose 1.4 µM) |  | 87.3% | 84.2% | 91.6% | 75.1% |  | 83.8% | 80.4% |  | 
5 | CN1CCN(c2ccc3nc(-c4c(N)c5c(F)cccc5[nH]c4=O)[nH]c3c2)CC1 [Dovitinib] + CC(=O)c1c(C)c2cnc(Nc3ccc(N4CCNCC4)cn3)nc2n(C2CCCC2)c1=O [palbociclib] (first compound 0.1 µM, partner dose 0.04 µM) | 71.2% | 74.6% | 74.7% | 91.1% | 66.6% | 91.9% | 51% | 83.5% |  | 
6 | CNC(=O)c1cc(Oc2ccc(NC(=O)Nc3ccc(Cl)c(C(F)(F)F)c3)cc2)ccn1 [sorafenib] + CC(C)CCN1c2nc(Nc3cc(F)c(O)c(F)c3)ncc2N(C)C(=O)C1C [BID1870] (first compound 0.4 µM, partner dose 0.2 µM) |  | 88.6% | 96.4% | 106% | 80% |  | 89.3% | 88.6% | 99.6% | 88.8%
7 | CN1CCN(c2ccc3nc(-c4c(N)c5c(F)cccc5[nH]c4=O)[nH]c3c2)CC1 [Dovitinib] + O=S(=O)(c1ccccc1)N(CC(F)(F)F)c1ccc(C(O)(C(F)(F)F)C(F)(F)F)cc1 [T0901317] (first compound 0.1 µM, partner dose 1.4 µM) |  | 98.8% | 108% | 77.2% | 112% | 102% | 90.8% | 84.2% | 87.3% | 109%
8 | CNC(=O)c1cc(Oc2ccc(NC(=O)Nc3ccc(Cl)c(C(F)(F)F)c3)cc2)ccn1 [sorafenib] + Nc1ccn([C@@H]2O[C@H](CO)[C@@H](O)C2(F)F)c(=O)n1 [gemcitabine] (first compound 0.4 µM, partner dose 0.0004 µM) |  | 97.5% | 105% | 97.8% | 104% | 93.5% | 94% | 107% |  | 
9 | C[C@@H](Oc1cc(-c2cnn(C3CCNCC3)c2)cnc1N)c1c(Cl)ccc(F)c1Cl [Crizotinib] + C=CCNC1=C2C[C@@H](C)C[C@H](OC)[C@H](O)[C@@H](C)/C=C(\C)[C@H](OC(N)=O)[C@@H](OC)/C=C\C=C(/C)C(=O)NC(=CC1=O)C2=O [Tanespimycin] (first compound 0.2 µM, partner dose 0.002 µM) |  | 100% | 100% | 88.6% | 101% | 103% | 109% | 106% |  | 
10 | C[C@@H](Oc1cc(-c2cnn(C3CCNCC3)c2)cnc1N)c1c(Cl)ccc(F)c1Cl [Crizotinib] + O=C(Nc1ccccc1)c1cc([N+](=O)[O-])ccc1Cl [GW9662] (first compound 0.2 µM, partner dose 2 µM) |  | 104% | 106% | 96.8% | 101% | 92.8% | 92.6% | 96% | 94.8% | 120%
11 | C=CCNC1=C2C[C@@H](C)C[C@H](OC)[C@H](O)[C@@H](C)/C=C(\C)[C@H](OC(N)=O)[C@@H](OC)/C=C\C=C(/C)C(=O)NC(=CC1=O)C2=O [Tanespimycin] + OCc1c[nH]c2ccccc12 [Indole-3-carbinol] (first compound 0.002 µM, partner dose 0.8 µM) | 102% | 98.6% | 87.2% | 99.4% | 104% | 98.4% | 111% | 95.8% |  | 
